From a collection of fitness landscapes (doi:10.1016/j.celrep.2020.107928)
In all, about 81,000 sequences were measured (“one-hybrid fitness for binding parS DNA”: median about -0.17, highest 2% from about 0.51 on). Some of the results follow.

B1: Caulobacter ParB omega fusion; a variant is named by its letters at X, in order, B8GW30 (parent)
chain: MESVVVGEPGMSEGRRGLGRGLSALLGEVDAAPAQAPGEQLGGSREAPIEILQRNPDQPRRTFREEDLEDLSNSIREKGVLQPILVRPSPDTAGEYQIVAGERAWRAAQRAGLKTVPIMVRELDDLAVLEIGIIENVQRADLNVLEEALSYKVLMEKFERTQENIAQTIGKSXSHVANXMRLLXLPDEVQSYLVSGELTAXHARAIAAAADPVALAKQIIEGGLSVRETEALARKAPNLSAGKSKGGRPPRVKDTDTQALESDLSSVLGLDVSIDHRGSTGTLTITYATLEQLDDLCNRLTRGI

Variants of: B1
Experiment: one-hybrid fitness for binding parS DNA (scaled: cognate 1, non-cognate 0); higher = stronger binding
Conditions: with parS DNA site
Outline: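 Values were rescaled so that cognate is 1 and non-cognate is 0. Each is a fitness, the log change in a variant's read ratio to wild type from Illumina reads of plasmids before and after selection, with three replicate libraries pooled and variants under 10 reads dropped. Selection of the Caulobacter ParB libraries, four specificity codons randomised, used E. coli USO with a HIS3 reporter, site 19 bp from the promoter, on M9-minus-histidine with 0.1 mM IPTG and 5 mM 3-AT for 48 hours at 37°C.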

one-hybrid fitness for binding parS DNA, 1:
RSHG

one-hybrid fitness for binding parS DNA, 0.853:
RYQT

one-hybrid fitness for binding parS DNA, 0.221:
RWNM

one-hybrid fitness for binding parS DNA, 0.252:
RTCF

one-hybrid fitness for binding parS DNA, 1.03:
RTFS
RTWG

one-hybrid fitness for binding parS DNA, 0.243:
WKLD

one-hybrid fitness for binding parS DNA, 0.234:
RSTH

one-hybrid fitness for binding parS DNA, ≤ 0.2:
AIRY
FSDI
WFAS
NSRN
DALL
CPPT
LFLC
PTKM
CFPH
DQCG
FLFI
THTL
YNRF
DSDT
YEHG
PCEW
RIVW
WVHV
SSPA
IMPE
LGHV
PDGL
QITF
RVND
ALKC
NYAV
SPPA
GSFC
HMNS
ATYG
DLHM
FSTG
FRNV
SPRI
RMSK
INSS
CMRY
MMWN
VVND
QPGG
SPRT
CKLP
ATSN
HFGR
QGRH
MNCS
TNAR
TRAF
KTPY
YGLL
VLLD
HFFR
TVCS
YVQM
HPTG
RSKE
TAYF
GSRM
PLYW
DMVR
TAEG
VKQC
EMWS
VRDC
WPPP
NMMT

one-hybrid fitness for binding parS DNA, 0.204:
WYGR

one-hybrid fitness for binding parS DNA, 0.324:
RYLM
